In the test the target is T1, MOCS3 purified after expression in Sf9 cells (human, UniProt O95396 1-460).
T1 construct: MOCS3, human; no tag is named here; also called pMMC30; source: Sf9 cells, purified
T1 sequence (looked up): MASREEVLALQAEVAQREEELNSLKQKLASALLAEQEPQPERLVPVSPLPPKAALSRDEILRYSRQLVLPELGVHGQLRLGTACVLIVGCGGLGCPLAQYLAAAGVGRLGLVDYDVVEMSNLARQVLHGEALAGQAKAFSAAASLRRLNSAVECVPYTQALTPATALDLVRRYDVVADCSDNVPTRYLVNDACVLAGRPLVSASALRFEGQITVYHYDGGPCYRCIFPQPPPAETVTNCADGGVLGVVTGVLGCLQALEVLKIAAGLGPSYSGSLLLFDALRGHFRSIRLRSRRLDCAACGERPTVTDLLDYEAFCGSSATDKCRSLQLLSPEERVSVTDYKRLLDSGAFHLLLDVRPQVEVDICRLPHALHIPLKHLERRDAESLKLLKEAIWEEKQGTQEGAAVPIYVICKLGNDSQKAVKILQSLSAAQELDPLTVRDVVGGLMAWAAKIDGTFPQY
Briefly: SPR; Biacore T200, CM5 chip, target immobilized by amine coupling (400–600 RU), 25°C, 30 µL/min, 20 mM phosphate, 150 mM NaCl, 0.005% Tween 20, pH 7.4; analytes 0.31–10 µM; global fit, 1:1 binding, mean of 3 measurements. The settings on record: both partners purified. A general note: In SPR one partner is held on a chip, and binding of the other changes the refractive index at the surface.

B1: NFS1Δ[…] (purified) (domain or fragment)
chain: not shown
notes: L-cysteine desulfurase NFS1, human, without […]; also called His6-NFS1Δ[…]; pZM2; source: E. coli BL21(DE3), purified; co-expressed with ISD11 in E. coli for the complex
The Kd is the free concentration of one partner at which half of the binding sites on the other are occupied at equilibrium, for simple one-to-one binding. On to B1, for which the Kd was 28.3 nM.

The values are drawn from publication PMC3625234, “The L-Cysteine Desulfurase NFS1 Is Localized in the Cytosol where it Provides the Sulfur for Molybdenum Cofactor Biosynthesis in Humans” (PLoS ONE, 2013).
